This is one part of the list.

One assay has as its system HepG2. Briefly: cytotoxicity call (relative viability < 0.9). The conditions noted are these: 10 µM.
With `Cc1noc(C)c1S(=O)(=O)N(C)C[C@@H]1Oc2ccc(NC(=O)CCC(F)(F)F)cc2CC(=O)N([C@H](C)CO)C[C@H]1C`, the cytotoxicity call is “inactive”.
As for `C[C@@H]1CCCCO[C@@H](CN(C)Cc2ccc(C(=O)O)cc2)[C@@H](C)CN([C@H](C)CO)C(=O)c2cc(NC(=O)NC3CCCCC3)ccc2O1`, the cytotoxicity call is “inactive”.
Regarding `C[C@H](CO)N1C[C@H](C)[C@H](CN(C)S(=O)(=O)c2ccc(F)cc2)Oc2ncc(-c3cccc(C(=O)N(C)C)c3)cc2C1=O`, the cytotoxicity call was “inactive”.
Same read-out and setting: under `COc1ccc(NC(=O)N(C)C[C@@H]2Oc3ccc(NC(=O)C4CC4)cc3CC(=O)N([C@@H](C)CO)C[C@@H]2C)cc1` stands “inactive”.
As to `Cc1nccn1-c1cccc(CN)c1`, the cytotoxicity call was “inactive”.
Same read-out and setting: the entry for `C[C@@H]1CN([C@H](C)CO)C(=O)Cc2cc(NS(=O)(=O)c3cn(C)cn3)ccc2O[C@@H]1CN(C)Cc1ccncc1` is “inactive”; for `COc1ccccc1-c1cc(=O)c2c(OC)cccc2o1` it is “inactive”.
The same measure, in the same setting: the entry for `Cc1ccc(S(=O)(=O)Nc2cccc3c2O[C@@H](CN(C)C(=O)Nc2ccc(C(F)(F)F)cc2)[C@H](C)CN([C@@H](C)CO)C3=O)cc1` is “inactive”; for `COc1ccc(CN(C)C[C@H]2OCCCC[C@H](C)Oc3ccc(NS(=O)(=O)c4cccs4)cc3C(=O)N([C@@H](C)CO)C[C@@H]2C)cc1` it is “inactive”.
The same measure, in the same setting: under `COCC#Cc1ccc2c(c1)O[C@H](CN(C)S(C)(=O)=O)[C@H](C)CN([C@H](C)CO)S2(=O)=O` stands “inactive”; under `CC(C)N1C[C@@H](C)[C@H](CN(C)S(=O)(=O)c2ccc(F)cc2)OCCCC[C@H](C)Oc2ccc(NC(=O)Nc3ccccc3)cc2C1=O`, “inactive”.
`Cc1ccc(S(=O)(=O)N(C)C[C@H]2Oc3ccc(N(C)C)cc3CC(=O)N([C@H](C)CO)C[C@@H]2C)cc1`: the cytotoxicity call was “inactive”.
Same read-out and setting: the entry for `C[C@@H]1CCCCO[C@H](CN(C)Cc2ccccc2)[C@H](C)CN([C@@H](C)CO)C(=O)c2cc(NS(=O)(=O)c3ccc(F)cc3)ccc2O1` is “inactive”.
On the same count and under the same terms, under `C[C@H](CO)N1C[C@H](C)[C@H](CN(C)Cc2ccc(C(=O)O)cc2)Oc2ccc(NC(=O)CCN3CCOCC3)cc2CC1=O` stands “inactive”; under `C[C@H](CO)N1C[C@H](C)[C@H](CN(C)S(=O)(=O)c2cccc(F)c2)Oc2cc(Br)ccc2S1(=O)=O`, “inactive”.
Still for that read-out and setting: under `COc1cccc(C(=O)Nc2ccc3c(c2)C(=O)N(C)[C@H]2CC[C@H](CC(=O)Nc4ccc5c(c4)CCCC5)O[C@@H]2CO3)c1` stands “inactive”; under `COc1ncnc(NS(=O)(=O)c2ccc(N)cc2)c1OC`, “inactive”.
Consider `CCCN(CCC)c1cc(N2CCCC2)c2ccccc2c1`, for which the cytotoxicity call is “active”.
Still for that read-out and setting: the entry for `C[C@]12C(=O)N(CCC(=O)O)C(=O)[C@H]1[C@@H]1C=C[C@@H]2C1` is “inactive”; for `O=C(O)C[C@@H]1CC[C@H]2[C@@H](COC[C@@H](O)CN2S(=O)(=O)c2ccc(F)cc2)O1` it is “inactive”.
Same read-out and setting: the entry for `Cc1noc(C)c1NC(=O)Nc1ccc2c(c1)C(=O)N([C@@H](C)CO)C[C@@H](C)[C@@H](CN(C)Cc1ccccc1)OCCCC[C@@H](C)O2` is “inactive”; for `CN(C)CC(=O)N1CC(=O)N2[C@H](CO)[C@@H](c3ccc(C#Cc4cccnc4)cc3)[C@H]2C1` it is “inactive”; for `C[C@@H]1CCCCO[C@@H](CN(C)Cc2ccc(C(F)(F)F)cc2)[C@@H](C)CN([C@H](C)CO)C(=O)c2cc(NS(=O)(=O)c3ccc(Cl)cc3)ccc2O1` it is “active”.
On the same count and under the same terms, under `C[C@@H]1CCCCO[C@H](CN(C)Cc2ccc(C(=O)O)cc2)[C@@H](C)CN([C@@H](C)CO)C(=O)c2cc(NC(=O)NC3CCCCC3)ccc2O1` stands “inactive”; under `Cc1noc(C)c1NC(=O)N(C)C[C@H]1OCCCC[C@H](C)Oc2ccc(NS(=O)(=O)c3ccc(F)cc3)cc2C(=O)N([C@@H](C)CO)C[C@H]1C`, “inactive”.
With `C[C@H](CO)N1C[C@H](C)[C@@H](CN(C)Cc2ccc(C(=O)Nc3ccccc3N)cc2)Oc2c(NC(=O)Nc3ccc(F)cc3)cccc2C1=O`, the cytotoxicity call is “inactive”.
`Cc1ccc(S[C@]2(C(=O)NCC(C)C)CC(=O)N(Cc3cc(C(F)(F)F)cc(C(F)(F)F)c3)[C@@H]2c2ccc(CO)cc2I)cc1`: the cytotoxicity call is “inactive”.
`C[C@@H]1CCCCO[C@H](CN(C)C(=O)c2ccncc2)[C@@H](C)CN([C@H](C)CO)C(=O)c2cc(NC(=O)NC3CCCCC3)ccc2O1`: the cytotoxicity call was “inactive”.
Still for that read-out and setting: the entry for `O=C(C[C@@H]1C[C@H]2c3cc(NC(=O)C4CCOCC4)ccc3O[C@H]2[C@@H](CO)O1)NCc1ccc(Cl)cc1` is “inactive”.

The next assay concerns S. aureus RN4220. The experiment in a line: growth inhibition call (relative growth <= 0.2). The conditions noted are these: 50 µM.
On to `Cc1noc(C)c1S(=O)(=O)N(C)C[C@H]1OCCCC[C@H](C)Oc2ccc(NC(=O)Nc3cccc4ccccc34)cc2C(=O)N([C@@H](C)CO)C[C@@H]1C`, for which the growth inhibition call was “inactive”.
On the same count and under the same terms, the entry for `C[C@H]1CN([C@@H](C)CO)C(=O)Cc2cc(NS(=O)(=O)c3cn(C)cn3)ccc2O[C@@H]1CN(C)S(=O)(=O)c1ccc(F)cc1` is “inactive”; for `C[C@@H]1CN([C@H](C)CO)C(=O)c2cccc(NC(=O)Nc3ccc(C(F)(F)F)cc3)c2O[C@@H]1CN(C)S(C)(=O)=O` it is “inactive”; for `Cc1cc(O)c(C(=O)/C=C/N(C)C)c(=O)o1` it is “inactive”.
As for `C[C@H](CO)N1C[C@H](C)[C@H](CN(C)C(=O)CCC(F)(F)F)OCCCC[C@H](C)Oc2ccc(NC(=O)c3ccccc3)cc2C1=O`, the growth inhibition call was “inactive”.
Same read-out and setting: under `COc1ccc(-c2oc3cc(OC)c(OC)c(OC)c3c(=O)c2OC)cc1OC` stands “inactive”.
Same read-out and setting: under `COc1cccc(S(=O)(=O)N2C[C@@H](O)COC[C@H]3O[C@H](CC(=O)N4CCN(c5ccccc5)CC4)CC[C@@H]32)c1` stands “inactive”; under `CN(C)C(=O)c1cccc(-c2cccc(-c3nc(C(=O)N4CCCCC4)cc4c3[C@@H](CCO)N([S@](=O)C(C)(C)C)C4)c2)c1`, “inactive”.
Still for that read-out and setting: under `C[C@H]1CN([C@@H](C)CO)C(=O)Cc2cc(NC(=O)Cn3cnnn3)ccc2O[C@H]1CN(C)S(=O)(=O)c1cccs1` stands “inactive”; under `C[C@H]1CN([C@@H](C)CO)C(=O)c2cc(/C=C/c3ccccc3)cnc2O[C@H]1CN(C)S(=O)(=O)c1cn(C)cn1`, “inactive”.
For the molecule `C[C@H](CO)N1C[C@H](C)[C@H](CN(C)Cc2ccc(C(=O)Nc3ccccc3N)cc2)Oc2ccc(NC(=O)CCN3CCOCC3)cc2CC1=O`, the growth inhibition call was “inactive”.
On the same count and under the same terms, the entry for `Cc1noc(C)c1S(=O)(=O)N(C)C[C@@H]1Oc2ccc(NC(=O)CCC(F)(F)F)cc2CC(=O)N([C@H](C)CO)C[C@H]1C` is “inactive”; for `C[C@@H]1CCCCO[C@@H](CN(C)Cc2ccc(C(=O)O)cc2)[C@@H](C)CN([C@H](C)CO)C(=O)c2cc(NC(=O)NC3CCCCC3)ccc2O1` it is “inactive”.
On the same count and under the same terms, under `C[C@H](CO)N1C[C@H](C)[C@H](CN(C)S(=O)(=O)c2ccc(F)cc2)Oc2ncc(-c3cccc(C(=O)N(C)C)c3)cc2C1=O` stands “inactive”; under `COc1ccc(NC(=O)N(C)C[C@@H]2Oc3ccc(NC(=O)C4CC4)cc3CC(=O)N([C@@H](C)CO)C[C@@H]2C)cc1`, “inactive”.
In the case of `Cc1nccn1-c1cccc(CN)c1`, the growth inhibition call is “inactive”.
In the case of `C[C@@H]1CN([C@H](C)CO)C(=O)Cc2cc(NS(=O)(=O)c3cn(C)cn3)ccc2O[C@@H]1CN(C)Cc1ccncc1`, the growth inhibition call was “inactive”.
Same read-out and setting: under `COc1ccccc1-c1cc(=O)c2c(OC)cccc2o1` stands “inactive”; under `Cc1ccc(S(=O)(=O)Nc2cccc3c2O[C@@H](CN(C)C(=O)Nc2ccc(C(F)(F)F)cc2)[C@H](C)CN([C@@H](C)CO)C3=O)cc1`, “inactive”.
Same read-out and setting: under `COc1ccc(CN(C)C[C@H]2OCCCC[C@H](C)Oc3ccc(NS(=O)(=O)c4cccs4)cc3C(=O)N([C@@H](C)CO)C[C@@H]2C)cc1` stands “inactive”; under `COCC#Cc1ccc2c(c1)O[C@H](CN(C)S(C)(=O)=O)[C@H](C)CN([C@H](C)CO)S2(=O)=O`, “inactive”.
The same measure, in the same setting: under `CC(C)N1C[C@@H](C)[C@H](CN(C)S(=O)(=O)c2ccc(F)cc2)OCCCC[C@H](C)Oc2ccc(NC(=O)Nc3ccccc3)cc2C1=O` stands “inactive”.
Consider `Cc1ccc(S(=O)(=O)N(C)C[C@H]2Oc3ccc(N(C)C)cc3CC(=O)N([C@H](C)CO)C[C@@H]2C)cc1`, for which the growth inhibition call is “inactive”.
On to `C[C@@H]1CCCCO[C@H](CN(C)Cc2ccccc2)[C@H](C)CN([C@@H](C)CO)C(=O)c2cc(NS(=O)(=O)c3ccc(F)cc3)ccc2O1`, for which the growth inhibition call is “inactive”.
Still for that read-out and setting: under `C[C@H](CO)N1C[C@H](C)[C@H](CN(C)Cc2ccc(C(=O)O)cc2)Oc2ccc(NC(=O)CCN3CCOCC3)cc2CC1=O` stands “inactive”; under `C[C@H](CO)N1C[C@H](C)[C@H](CN(C)S(=O)(=O)c2cccc(F)c2)Oc2cc(Br)ccc2S1(=O)=O`, “inactive”.
Same read-out and setting: under `COc1cccc(C(=O)Nc2ccc3c(c2)C(=O)N(C)[C@H]2CC[C@H](CC(=O)Nc4ccc5c(c4)CCCC5)O[C@@H]2CO3)c1` stands “inactive”.
The same measure, in the same setting: under `COc1ncnc(NS(=O)(=O)c2ccc(N)cc2)c1OC` stands “inactive”; under `CCCN(CCC)c1cc(N2CCCC2)c2ccccc2c1`, “inactive”; under `C[C@]12C(=O)N(CCC(=O)O)C(=O)[C@H]1[C@@H]1C=C[C@@H]2C1`, “inactive”.
As for `O=C(O)C[C@@H]1CC[C@H]2[C@@H](COC[C@@H](O)CN2S(=O)(=O)c2ccc(F)cc2)O1`, the growth inhibition call is “inactive”.
The same measure, in the same setting: under `Cc1noc(C)c1NC(=O)Nc1ccc2c(c1)C(=O)N([C@@H](C)CO)C[C@@H](C)[C@@H](CN(C)Cc1ccccc1)OCCCC[C@@H](C)O2` stands “inactive”; under `CN(C)CC(=O)N1CC(=O)N2[C@H](CO)[C@@H](c3ccc(C#Cc4cccnc4)cc3)[C@H]2C1`, “inactive”.
Regarding `C[C@@H]1CCCCO[C@@H](CN(C)Cc2ccc(C(F)(F)F)cc2)[C@@H](C)CN([C@H](C)CO)C(=O)c2cc(NS(=O)(=O)c3ccc(Cl)cc3)ccc2O1`, the growth inhibition call was “inactive”.
On the same count and under the same terms, the entry for `C[C@@H]1CCCCO[C@H](CN(C)Cc2ccc(C(=O)O)cc2)[C@@H](C)CN([C@@H](C)CO)C(=O)c2cc(NC(=O)NC3CCCCC3)ccc2O1` is “inactive”.
The same measure, in the same setting: under `Cc1noc(C)c1NC(=O)N(C)C[C@H]1OCCCC[C@H](C)Oc2ccc(NS(=O)(=O)c3ccc(F)cc3)cc2C(=O)N([C@@H](C)CO)C[C@H]1C` stands “inactive”.

These data come from the antibiotic and cytotoxicity screens of Wong et al. (2023).
